Test results reported in article PMC7170532 (2020).

Target: SRK-015
Assay: BLI

Chain of SRK-015 (O14793 other isoform, or with tags, fused parts or gaps): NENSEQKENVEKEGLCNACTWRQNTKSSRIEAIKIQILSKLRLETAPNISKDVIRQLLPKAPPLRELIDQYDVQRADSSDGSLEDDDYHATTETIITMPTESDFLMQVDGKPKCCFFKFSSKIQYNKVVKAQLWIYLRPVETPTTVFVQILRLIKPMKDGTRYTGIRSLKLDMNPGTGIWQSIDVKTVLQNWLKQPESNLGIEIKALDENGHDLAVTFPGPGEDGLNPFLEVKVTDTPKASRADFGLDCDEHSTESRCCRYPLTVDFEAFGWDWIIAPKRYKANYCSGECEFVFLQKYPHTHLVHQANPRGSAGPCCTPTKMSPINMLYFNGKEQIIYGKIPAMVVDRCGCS

Kd: 0.821 nM
B1: pro-myostatin (uncleavable precursor, D99A/R263A/R266A) (natural protein)
chain: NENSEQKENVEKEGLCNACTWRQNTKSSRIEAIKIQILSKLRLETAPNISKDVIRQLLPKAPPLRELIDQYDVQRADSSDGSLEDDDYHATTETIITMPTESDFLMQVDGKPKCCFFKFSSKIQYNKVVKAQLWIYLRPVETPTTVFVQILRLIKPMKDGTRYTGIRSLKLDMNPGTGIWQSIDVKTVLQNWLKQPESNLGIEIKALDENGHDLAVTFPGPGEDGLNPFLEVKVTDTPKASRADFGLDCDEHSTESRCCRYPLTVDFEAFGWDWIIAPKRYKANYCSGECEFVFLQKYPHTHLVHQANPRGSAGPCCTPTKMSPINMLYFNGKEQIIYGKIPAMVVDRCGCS
